In a collection of fitness landscapes (doi:10.1038/s41467-024-54723-y):
The full ranking holds about 18,000 sequences; the median of “TetR repression strength (sort-seq, GFP reporter)” is about 0.23, and the highest 2% start at about 0.68. Some of the results follow.

target: TetR (class B, Tn10) (UniProt P04483); assay: TetR repression strength (sort-seq, GFP reporter) (relative to tetO2 = 1); higher = stronger repression; conditions: E. coli
Outline: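 E. coli SIG10-MAX carried a low-copy plasmid library with eight randomized operator positions between a constitutive promoter and sfGFP, with TetR constitutively expressed. Cells grew 5 h at 37 °C in LB with 50 µg/mL chloramphenicol, then 10^6 cells were FACS-sorted into 13 fluorescence bins, each Illumina-sequenced. Repression strength is the top bin index plus one minus the read-weighted mean bin, divided by the wild-type operator value. Three independent transformations; variants with ≥30 reads in all replicates and CV ≤0.5 were averaged.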

UniProt P04483, sequence (P04483 whole entry): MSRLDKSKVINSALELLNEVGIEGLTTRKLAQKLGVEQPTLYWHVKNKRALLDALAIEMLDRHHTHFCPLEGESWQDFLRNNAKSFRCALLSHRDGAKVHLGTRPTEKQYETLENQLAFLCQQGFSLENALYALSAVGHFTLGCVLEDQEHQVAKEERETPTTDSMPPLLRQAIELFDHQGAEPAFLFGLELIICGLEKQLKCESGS

Row | Sequence | TetR repression strength
1 | TCCCCGCAAGTCGTCGAGA | 0.178
2 | TCCCTGCTAGTTGAAGAGA | 0.214
3 | TCCCTTCTAGTTCTGGAGA | 0.402
4 | TCCCACTCAGTTTCGGAGA | 0.223
5 | TCCCAGTGAGTGATCGAGA | 0.162
6 | TCCCGTCCAGTTGGAGAGA | 0.169
7 | TCCCCTACAGTGAGGGAGA | 0.029
8 | TCCCACTGAGTCCGGGAGA | 0.368
9 | TCCCTGGTAGTGCGGGAGA | 0.00546
10 | TCCCGTTCAGTAACTGAGA | 0.351
11 | TCCCTGCGAGTCGTGGAGA | 0.319
12 | TCCCGTATAGTGGTGGAGA | 0.0729
13 | TCCCAACGAGTAGTCGAGA | 0.0311
14 | TCCCGTTGAGTAGCCGAGA | 0.181
15 | TCCCTATCAGTGAGCGAGA | 0.73
16 | TCCCACCGAGTACAGGAGA | 0.219
17 | TCCCTGTAAGTGTCTGAGA | 0.3
18 | TCCCATAAAGTGCGTGAGA | 0.166
19 | TCCCGCATAGTCGGTGAGA | 0.193

Row | Sequence | TetR repression strength
20 | TCCCAGGCAGTCGGTGAGA | 0.213
21 | TCCCCTGTAGTTGATGAGA | 0.145
22 | TCCCCCCCAGTGGAGGAGA | 0.208
23 | TCCCCTTCAGTGTGCGAGA | 0.254
24 | TCCCAAGTAGTGGCGGAGA | 0.126
25 | TCCCGCCTAGTGTTGGAGA | 0.234
26 | TCCCGATGAGTCATTGAGA | 0.274
27 | TCCCGCGGAGTATATGAGA | 0.201
28 | TCCCCATGAGTGGGCGAGA | 0.384
29 | TCCCAGGCAGTCTACGAGA | 0.212
30 | TCCCTGTGAGTGTCGGAGA | 0.369
31 | TCCCACGCAGTCGGGGAGA | 0.262
32 | TCCCAAAAAGTCTATGAGA | 0.392
33 | TCCCATTAAGTTTGTGAGA | 0.304
34 | TCCCTAGAAGTGGCGGAGA | 0.0993
35 | TCCCTAGGAGTGGCGGAGA | 0.177
36 | TCCCTCCAAGTTTTTGAGA | 0.522
37 | TCCCGGTGAGTATGGGAGA | 0.21
38 | TCCCATGTAGTCGCAGAGA | 0.332

Row | Sequence | TetR repression strength
39 | TCCCTTTTAGTGGTGGAGA | 0.212
40 | TCCCATCTAGTGGTAGAGA | 0.377
41 | TCCCAGTGAGTGGCTGAGA | 0.145
42 | TCCCTACTAGTTGTTGAGA | 0.0558
43 | TCCCAGCGAGTTCTAGAGA | 0.421
44 | TCCCCTGAAGTTTTTGAGA | 0.323
45 | TCCCTGCGAGTGCGCGAGA | 0.208
46 | TCCCCAGCAGTATCTGAGA | 0.312
47 | TCCCACGTAGTGATCGAGA | 0.229
48 | TCCCTCGCAGTAAGCGAGA | 0.419
49 | TCCCAGAAAGTGGGGGAGA | 0.278
50 | TCCCGGTTAGTGACGGAGA | 0.375
51 | TCCCGTGGAGTCATGGAGA | 0.127
52 | TCCCTGGCAGTGTCTGAGA | 0.172
53 | TCCCTGTCAGTCCTGGAGA | 0.403
54 | TCCCCCAGAGTTAACGAGA | 0.207
55 | TCCCAGAAAGTGTAGGAGA | 0.0624
56 | TCCCAGGCAGTCTCTGAGA | 0.215
